Reference: the supplement of paper PMC3334620
Whole data set: some 33,000 sequences, median “E-score (-0.5 to 0.5)” near -0.035, cut for the highest 2% near 0.35. This is one part of the list.

The sequences below were run against T1, Pdr3 (UniProt P33200) (assay: PBM E-score (8-mer binding enrichment) (E-score (-0.5 to 0.5)); higher = stronger / more preferred TF binding; most listed sequences are background and not binding sites). Settings: protein concentration: 200 nM; construct: GST-full length.
T1 sequence: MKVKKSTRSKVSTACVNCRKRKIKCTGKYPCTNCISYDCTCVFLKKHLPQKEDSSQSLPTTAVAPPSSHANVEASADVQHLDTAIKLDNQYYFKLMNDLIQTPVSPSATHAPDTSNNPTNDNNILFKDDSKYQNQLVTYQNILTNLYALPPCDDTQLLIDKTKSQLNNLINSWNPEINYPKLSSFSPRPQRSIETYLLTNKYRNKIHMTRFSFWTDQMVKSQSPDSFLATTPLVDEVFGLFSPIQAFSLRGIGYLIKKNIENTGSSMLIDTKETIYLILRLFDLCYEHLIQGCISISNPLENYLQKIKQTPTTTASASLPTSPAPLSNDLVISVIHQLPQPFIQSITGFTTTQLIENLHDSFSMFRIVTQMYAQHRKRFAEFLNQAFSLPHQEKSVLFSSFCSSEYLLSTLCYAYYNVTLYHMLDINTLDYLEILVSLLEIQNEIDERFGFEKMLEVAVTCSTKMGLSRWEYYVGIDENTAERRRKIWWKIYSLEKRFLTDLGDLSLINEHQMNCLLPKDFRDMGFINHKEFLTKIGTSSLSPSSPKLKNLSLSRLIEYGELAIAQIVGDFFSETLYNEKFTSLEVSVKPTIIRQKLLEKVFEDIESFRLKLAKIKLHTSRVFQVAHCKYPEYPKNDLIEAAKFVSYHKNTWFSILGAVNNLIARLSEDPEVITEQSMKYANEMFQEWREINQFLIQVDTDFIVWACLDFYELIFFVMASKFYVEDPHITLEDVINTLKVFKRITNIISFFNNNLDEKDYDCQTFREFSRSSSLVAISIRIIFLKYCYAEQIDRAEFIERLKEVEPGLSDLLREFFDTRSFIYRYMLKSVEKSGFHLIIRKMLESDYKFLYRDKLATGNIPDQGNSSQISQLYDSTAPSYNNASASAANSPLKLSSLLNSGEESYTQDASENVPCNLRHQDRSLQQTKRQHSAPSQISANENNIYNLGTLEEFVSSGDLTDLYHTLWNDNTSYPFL
Summary of the method: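 Bound GST-tagged yeast transcription factors, applied at about 100-200 nM to double-stranded universal all-10-mer Agilent arrays, were detected with fluorescent anti-GST. Scans were normalised with masliner. A modified Wilcoxon-Mann-Whitney statistic, the E-score, was assigned to each ungapped eight-base word pooled with its reverse complement by the Universal PBM Analysis Suite.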

Row | Sequence | PBM E-score
1 | CCCTTATC | -0.145
2 | TAGGTCGA | 0.0176
3 | CTGTGAAC | -0.142
4 | CTTTAGCC | 0.0828
5 | GGCCCCTA | -0.0294
6 | ATAGTGGA | 0.0309
7 | CATCGTGA | 0.00952
8 | CGTTCGTC | 0.101
9 | AGCTTCAC | -0.165
10 | CTTATTCC | 0.189
11 | CGGCGACC | 0.276
12 | TACCTGGA | 0.0517
13 | AAAAGATC | -0.0361
14 | TGAAGTAA | -0.0771
15 | ACTTAACC | -0.166
16 | GAGCTCCC | 0.0427
17 | ATCAGGAG | -0.0399
18 | AGCGCCAC | -0.132
19 | GTAGATCA | 0.188
20 | GAGATAAC | 0.0104
21 | GTAAGTAA | -0.134
22 | CGAGTAGC | 0.0654

Row | Sequence | PBM E-score
23 | ATACAGAC | 0.0563
24 | ATAGAGAC | -0.153
25 | AAGTGGAC | -0.083
26 | ATAGTGAG | -0.186
27 | CACATGCA | -0.0842
28 | CCCTGTCG | -0.0711
29 | AGCCTAAA | -0.206
30 | ATCAGGTA | -0.0279
31 | GTAATCTA | 0.0675
32 | CACCATGG | -0.266
33 | ACGCGCTC | 0.0762
34 | ATCTACAA | -0.234
35 | ACATGCGC | 0.0468
36 | AAGGGGAC | 0.00657
37 | TGCTATAA | -0.00165
38 | AATAAATT | 0.0655
39 | AGCCCGGG | 0.383
40 | AATCGCCC | 0.0276
41 | AGGATCAT | -0.157
42 | GCGGGGTA | 0.233
43 | TCGGACGA | 0.233
44 | ACTAAAAT | 0.0253

Row | Sequence | PBM E-score
45 | AGCAACTG | -0.055
46 | CTATTCCA | 0.13
47 | AATCCAGA | 0.127
48 | ATGCGGCG | 0.172
49 | GTCCTGAA | -0.00529
50 | AACTCGTG | 0.0222
51 | AAACTGTT | 0.062
52 | CTGGACAC | -0.172
53 | AACATTCT | -0.189
54 | CAGAAGAA | -0.231
55 | TAGCAAGA | -0.149
56 | GCTACTAC | 0.146
57 | ATTTGGAC | -0.0704
58 | CGGTCATA | 0.0842
59 | AAGCACGT | -0.0941
60 | TACAATGA | -0.255
61 | GGTGAGGA | -0.0196
62 | CTAAATAA | -0.143
63 | GCAATCAA | -0.0663
64 | CCGCGACA | 0.201
65 | ATTACCCC | 0.213
66 | CTGTACAC | -0.201

Row | Sequence | PBM E-score
67 | ACGTTCAC | -0.184
68 | ACTATAGC | -0.092
69 | CGGAAATC | 0.407
70 | CTCGACGC | 0.0906
71 | TAAGATTA | -0.146
72 | CCAGATGG | -0.0553
73 | CCATCTAC | -0.0638
74 | AGGTCACG | -0.0472
75 | GGTAGGAC | -0.0863
76 | ATATTAGC | -0.00055
77 | ATAGCGGC | 0.186
78 | CCTAGCAC | -0.178
79 | AATGACAC | -0.0767
80 | CATAGAGA | -0.158
81 | CCGGACAG | 0.338
82 | ACCACCGC | -0.0536
83 | CAATTACA | 0.0132
84 | AATGGCAA | -0.154
85 | AGACGCTA | -0.119
86 | CCCGCCTC | 0.12
87 | CCCGGAAG | 0.419
88 | ATGGCTCG | -0.0282

Row | Sequence | PBM E-score
89 | CAGCATGC | 0.0261
90 | CGACAAGA | 0.0261
91 | CTCACTCA | -0.0809
92 | TGCGCGCA | 0.205
93 | ATCCTTCC | -0.0925
94 | ATAGGGAA | -0.0342
95 | GGCACTCA | -0.251
96 | CGCAAAGA | 0.00604
97 | ATTAATGC | -0.0462
98 | GAATGCAC | 0.195
99 | ACCCGCTC | 0.057
100 | ATGGATCG | 0.139
101 | GCTGCTCA | -0.154
102 | CACAAGAG | -0.042
103 | AGAACTAC | -0.099
104 | CACCGCTG | -0.151
105 | GAAGCCAA | -0.0743
106 | ACAAATGT | -0.0604
107 | CAGCAAGG | -0.131
108 | GAGGAAGA | 0.0527
109 | GTTCCATA | 0.0937
110 | CAGAATTA | 0.0375
